PubChem BioAssay AID1240 (Sanford-Burnham Center for Chemical Genomics, 2008)
The campaign covered roughly 50,000 compounds. About 800 (1.6%) showed an effect of 50% or more. The list shows a part of the results.

Target: Bcl-2-like protein 10 (Homo sapiens) (UniProt Q9HD36)
Assay: TR3 peptide-Bcl-B binding displacers, biochemical primary FP assay, phenotype converters (AID 1240);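 note: 0% = Bcl-B with tracer peptide and DMSO and 100% = tracer peptide lacking Bcl-B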
Settings: GST-Bcl-B / FITC-TR3 peptide fluorescence polarization; stronger effect = higher value; compound at 3.75 mg/L

Sequence of UniProt Q9HD36 (Q9HD36 whole entry, looked up): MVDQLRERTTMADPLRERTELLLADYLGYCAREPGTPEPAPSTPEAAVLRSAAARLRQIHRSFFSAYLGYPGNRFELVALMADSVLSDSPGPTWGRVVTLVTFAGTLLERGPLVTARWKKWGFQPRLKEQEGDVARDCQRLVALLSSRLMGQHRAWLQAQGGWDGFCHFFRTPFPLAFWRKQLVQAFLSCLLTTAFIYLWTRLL

Structure (SMILES) | displacement [%]
Cc1ccc(C2=NN(C(=O)OC(C)(C)C)C(O)(C(F)(F)F)C2)cc1 (stereo unspecified) | 1.3
Cc1cc[n+](CC(=O)c2ccc(C)c([N+](=O)[O-])c2)cc1 | 2.9
CC(C)(C)c1ccc(C(=O)Nc2ccc(N)cc2)cc1 | 11.4
CCc1c(C#N)c(N)[nH]c(=S)c1C#N | 8.8
CC1CCN(c2cc(N3CCN(C(=O)c4ccccc4F)CC3)c([N+](=O)[O-])cc2F)CC1 | -5.2
Cc1cccc2sc(NC(=O)c3ccc(C(=O)c4ccccc4)cc3)nc12 | 4.1
COc1cc(C(=O)N/C(=C/c2ccc(F)cc2)C(=O)NC(CCC(=O)O)C(=O)O)cc(OC)c1OC (stereo unspecified) | -5.5
O=C(CC(Nc1ccc([N+](=O)[O-])cc1)c1ccc(Cl)cc1)c1ccc(Cl)cc1 (stereo unspecified) | -2.2
Cc1ccc(OCC(=O)Nc2cccnc2)cc1C | -0.6
Cc1cc(C)nc(SCC(=O)Nc2nc3c(s2)C(=O)CC(C)(C)C3)n1 | -1.2
CCCN1C(=O)c2ccccc2NC1c1cccc(F)c1 (stereo unspecified) | 11.1
CCC1CCc2c(sc(N)c2C#N)C1 (stereo unspecified) | -1.4
O=C(N/N=C/c1ccc(-c2cccc(C(F)(F)F)c2)o1)c1ccco1 | 7.3
COC(=O)c1c(NC(=O)c2sc3cc(C)ccc3c2Cl)sc(C)c1C | 6
Cc1cc(C(=O)NCCCN(C)C)ccc1[N+](=O)[O-] | 14.1
COc1cccc(C(=O)N2c3cc(OC)ccc3-c3c(ssc3=S)C2(C)C)c1 | -6.6
O=C(CSc1nc2ccccc2[nH]1)N/N=C/c1ccccc1[N+](=O)[O-] | 9.4
COc1ccc(/C=C2/C(C)=C(C#N)c3nc(N)c(C#N)c(C)c32)c(OC)c1 | -1
O=C(/C=C/c1ccc2c(c1)OCO2)Nc1ccc(N2CCCCC2)cc1 | -0.9
COc1ccc(Cl)cc1C(=O)N1CCOCC1 | -12.2
O=C1CCCc2nn(-c3ccccc3)nc21 | 3.2
Cc1cc(C)nc(SCC(=O)Nc2ccccc2C(=O)O)n1 | 0.9

Structure (SMILES) | displacement [%]
O=C1/C(=C\c2cc(Cl)c(O)c(Cl)c2)SC(=S)N1c1ccccc1 | -60.7
O=C(NCCCn1ccnc1)c1cc(-c2ccc(Cl)cc2)nc2ccccc12 | 1
CCOCCOC(=O)C1=C(C)NC2=C(C(=O)CCC2)C1c1ccc(OC)c(OCc2ccccc2)c1 (stereo unspecified) | 0.6
CCC(Oc1ccccc1)C(=O)N1CCN(C)CC1 (stereo unspecified) | -0.2
Cn1c2c(c(=O)[nH]c1=O)C(c1ccccc1)C1=C(N2)c2ccccc2C1=O (stereo unspecified) | 2.9
Cc1nc2sccn2c1C(=O)N/N=C/c1ccccc1O | -0.3
COc1cccc(CN2CCN(C(=O)c3cccs3)CC2)c1OC | -7
COc1cc(CNCc2ccccc2[N+](=O)[O-])cc(OC)c1 | -1.7
N/C(=N\S(=O)(=O)Cc1ccccc1)Nc1nc2ccccc2o1 | -2.3
COc1cc2c(NCc3ccccc3)cc(O)c(CC(=O)Nc3ccc(Cl)cc3)c2cc1OC | 1.5
Cc1ccc(CC2S/C(=N\N=C\c3ccco3)NC2=O)cc1 (stereo unspecified) | 35.4
O=C(COc1ccccc1[N+](=O)[O-])Nc1cc(-c2nc3ccccc3s2)ccc1Cl | 7.8
CCOCCOC(=O)C1=C(C)NC2=C(C(=O)CCC2)C1c1ccccc1Cl (stereo unspecified) | 2.2
O=C(c1cccc([N+](=O)[O-])c1)N1CCc2ccccc2C1 | 7.8
COc1cc(NC(=O)C(C)Oc2ccccc2)c(Cl)cc1NC(=O)c1ccccc1 (stereo unspecified) | 4.9
CC1(C)CC(=O)C(CC(=O)Nc2cccc3ccccc23)=C(O)C1 | 0.6
CC(N=C(NS(=O)(=O)c1ccccc1)c1ccccc1)C(=O)O (stereo unspecified) | 6.7
CC(=O)c1cccc(NC(=O)COc2ccc(C(C)(C)C)cc2)c1 | -0.3
S=c1oc(COc2ccc(Cl)cc2Cl)nn1CN1CCCCC1 | 8.7
COc1cc(NC(=O)c2nn3c(c2Cl)NC(c2ccc(OC)c(OC)c2)CC3C(F)(F)F)cc([N+](=O)[O-])c1 (stereo unspecified) | 11.9
CC(C)Oc1cccc(C(=O)Nc2ccc3oc(-c4ccncc4)nc3c2)c1 | 10
Cc1ccc(C2(c3ccc(C)cc3)CC2C(=O)Nc2ccccc2F)cc1 (stereo unspecified) | 5.7

Structure (SMILES) | displacement [%]
CCc1sc(-c2c(C#N)c(N)nc3c2CCCCCC3)cc1[N+](=O)[O-] | 7.7
Cc1ccc(S(=O)(=O)/N=C2/C=C(Cl)C(=O)c3ccccc32)cc1 | 16.7
COc1cc(-c2ccc(NC(=O)/C=C/c3ccco3)c(OC)c2)ccc1NC(=O)/C=C/c1ccco1 | 2.6
COc1ccc(S(=O)(=O)Nc2ccccc2C(N)=O)cc1 | 1.1
CN(C)C(=O)C1(C)CSSC(C)(C(=O)N(C)C)CSSC(C)(C(=O)N(C)C)CSS1 (stereo unspecified) | 15.1
O=C(NCc1ccco1)c1cc2n(n1)C(C(F)(F)F)CC(c1ccc(Br)cc1)N2 (stereo unspecified) | 0.5
COc1ccc(OC)c(NC(=O)CN(CCc2ccccc2)S(=O)(=O)c2ccc(Cl)cc2)c1 | -9.5
Cc1ccc([N+](=O)[O-])cc1-c1ccc(/C=C2/C(=O)NN(c3ccc(F)cc3)C2=O)o1 | -9.8
O=C(c1cc2nc(-c3ccc([N+](=O)[O-])cc3)cc(C(F)(F)F)n2n1)N1CCc2ccccc2C1 | 0.3
Cc1ccc(NC(=O)CSc2nc(C(F)(F)F)cc(=O)[nH]2)cc1 | -8.3
Cc1cc(C)n(C(=O)Nc2ccccc2)n1 | -7.9
CC1=C(C(=O)OCc2ccccc2)C(c2ccccc2[N+](=O)[O-])CC(=O)N1 (stereo unspecified) | -8.1
CC(C)NC(=O)C(=O)NNC(=O)C12CC3CC(CC(C3)C1)C2 | -10.1
CCCCOC(=O)c1c(NC(=O)C2C3CCC(C3)C2C(=O)O)sc2c1CCCC2 (stereo unspecified) | -9.6
O=C(NCC1CCCO1)C1CN(S(=O)(=O)c2ccccc2)CCN1S(=O)(=O)c1ccccc1 (stereo unspecified) | -1.3
Cc1ccnc(NC(=O)C2CCCCC2C(=O)O)c1 (stereo unspecified) | -13.1
CC(Oc1ccc2c3c(c(=O)oc2c1)CCC3)c1ccccc1 (stereo unspecified) | 10.3
O=C(NC(=S)N1CCCCCC1)c1cccnc1 | 1.2
COc1ccc(CN2CCN(C(=O)c3cccs3)CC2)c(OC)c1 | 7.8
O=C(N/N=C/c1ccc(O)c(Br)c1)c1ccccc1 | 1.8
O=[N+]([O-])c1ccc(S(=O)(=O)n2cccn2)cc1 | 1.4
CC(=O)Nc1ccc(NC(=S)NC(=O)c2ccco2)cc1 | 19.4

Structure (SMILES) | displacement [%]
O=c1[nH]nc(Cc2nc3ccccc3s2)c2ccccc12 | 10
CC(C)C(=O)Nc1ccc(-c2cnc(-c3ccc(NC(=O)C(C)C)cc3)nc2)cc1 | 7.5
Cc1ccc(N(Cc2ccc(C(=O)NCCSc3ccc(Cl)cc3)cc2)S(C)(=O)=O)cc1C | 7.4
COC(=O)c1ccccc1NC(=O)c1cnn2c(C(F)(F)F)cc(-c3ccc(OC)c(OC)c3)nc12 | 11.9
CCCN(CCC)c1ccc(/C=N/NC(=O)Cc2ccccc2)cc1 | -1
NN1C(=O)/C(=C\c2ccc([N+](=O)[O-])cc2)SC1=S | 16.1
O=C(CCNc1ccccc1)c1cccc([N+](=O)[O-])c1 | 1.8
O=C(NCCCNc1ccc([N+](=O)[O-])cc1)c1ccccc1Cl | 11.4
CNc1nc(OCC(F)(F)F)nc(N2CCOCC2)n1 | -5.8
Cc1cc(C)cc(NC(=O)C2CC(=O)N(c3ccc(Cl)cc3)C2)c1 (stereo unspecified) | 4.5
Cc1oc(C(C)(C)C)cc1C(=O)Nc1ccc(NC(=O)C(=O)O)cc1 | -5.5
Cc1ccc(N2C(=O)CC(SCc3ccccc3)C2=O)cc1 (stereo unspecified) | 2.4
COc1ccccc1NC(=O)CSc1nc2ccccc2c(=O)n1-c1ccccc1 | 13.2
Cc1ccc(-c2csc(-c3cc4cc([N+](=O)[O-])ccc4oc3=O)n2)cc1 | -7.9
CCOC(=O)NC(NC(=O)OCC)c1ccc(OC)c(OC)c1 | -8.4
COc1ccc(Br)cc1CN1CCN(Cc2cccn2C)CC1 | 1.7
COc1ccccc1/C=C1\SC(=S)N(CCC(=O)Nc2cccc(C)c2)C1=O | -10.4
COc1ccc(CC/C(=N\O)C2(O)CCCCC2)cc1 | -3.4
COc1ccc(-n2c(CCN3C(=O)c4ccccc4C3=O)nc3ccccc3c2=O)cc1 | -11.1
Cc1c(C(=O)Nc2ccccc2CO)cccc1[N+](=O)[O-] | -1.3
COc1cc2c(cc1OC)-c1nnnn1C(C)(C)C2 | -7.9
COC(=O)CCN1C(=O)/C(=C\c2ccc(F)cc2)SC1=S | 36.9

Structure (SMILES) | displacement [%]
Cc1ccc2nc(-c3ccc(NC(=O)c4ccccc4-c4ccccc4C(=O)O)cc3)sc2c1 | 7.9
Cc1c(OCc2ccc([N+](=O)[O-])cc2)ccc2c3c(c(=O)oc12)CCCC3 | 0.6
O=C(CNC(=O)c1cccc(F)c1)N=Nc1c(O)n(Cc2ccc3c(c2)OCO3)c2ccccc12 | 2.3
CCNC(=O)CC1S/C(=N\N=C\c2ccco2)NC1=O (stereo unspecified) | 9.2
CCOC(=O)c1c(NC(=O)/C=C/c2cccs2)sc(C(C)=O)c1C | -49.8
Cc1ccc(Nc2cc(=O)[nH]c(=O)[nH]2)cc1 | 3.9
O=C1NC(=Nc2ccc(O)cc2)S/C1=C/c1ccccc1 | 1.1
O=C1C2=C(c3ccccc31)C(c1ccncc1)Nc1ccc3ccccc3c12 (stereo unspecified) | 10.4
O=C(CC1S/C(=N\N=C\c2ccccc2)NC1=O)Nc1ccc(Cl)cc1Cl (stereo unspecified) | 4.7
CCn1c2ccccc2c2cc(CN3CCN(C(=O)c4ccncc4)CC3)ccc21 | 8.5
O=C(/C=C/c1cccc(C(F)(F)F)c1)Nc1cccc2cccnc12 | 15.9
Cc1ccc(N(Cc2ccc(C(=O)N/N=C/c3ccc(OC4CSC4)cc3)cc2)S(C)(=O)=O)cc1C | -2.4
FC(F)(F)c1ccc2nnc(-c3cccc(OCc4ccccc4)c3)n2c1 | 14
O=C(O)COc1ccc(N2C(=O)c3c(Cl)c(Cl)c(Cl)c(Cl)c3C2=O)cc1 | 17.7
CCOc1ccc(C(=O)Nc2cc(Cl)ccc2C(=O)O)cc1 | 10
COc1cc(/C=C2\C(=O)NC(=O)N(c3ccc(Cl)cc3)C2=O)cc(I)c1OC | 10.9
Cc1ccc(C(=O)COc2ccc3c(C)cc(=O)oc3c2)cc1 | 8
Cc1n[nH]c(C)c1Sc1ccccc1N=Cc1ccc(C(C)C)cc1 | 4.4
